The record followed here is PMC3578785, “Improved BM212 MmpL3 Inhibitor Analogue Shows Efficacy in Acute Murine Model of Tuberculosis Infection” (PLoS ONE, 2013).

≈ marks a conversion by molar mass, not a printed value. Where “and” joins values, the source holds several entries; their conditions need not be identical. Identical values can stand only once.

For one experiment, the system named is M. tuberculosis H37Rv. Kind of experiment: microbe, parasite or virus in culture. It is filed as cell-based, Mycobacterium tuberculosis. The note with it: Mycobacterium tuberculosis, H37RV, read-out: MIC, antimycobacterial activity against M. tuberculosis H37Rv.
For `NNC(=O)c1ccncc1` [Isoniazid], the MIC was 1.8 µM (≈ 0.247 µg/mL). Still for that read-out and setting: then `CO[C@H]1/C=C/O[C@@]2(C)Oc3c(C)c(O)c4c(O)c(c(/C=N/N5CCN(C)CC5)c(O)c4c3C2=O)NC(=O)/C(C)=C\C=C\[C@H](C)[C@H](O)[C@@H](C)[C@@H](O)[C@@H](C)[C@H](OC(C)=O)[C@@H]1C` [Rifampin, reference compound], with 0.02 µM (≈ 0.0165 µg/mL).

The same experiment, now with this note: aerobic conditions.
As for `Cc1ccc(-c2cc(CN3CCSCC3)c(C)n2-c2ccc(F)cc2)cc1` [Compound 2], the “MIC, antimycobacterial activity against M. tuberculosis H37Rv” value (shortened to “MIC, antimycobacterial activity”) is 0.16 µM (≈ 0.0609 µg/mL). The same measure, in the same setting: the value for `COc1ccc(-c2cc(CN3CCSCC3)c(C)n2-c2ccc(F)cc2)cc1` [Compound 3] was 0.2 µM and 0.20 µM; that for `CSc1ccc(-c2cc(CN3CCSCC3)c(C)n2-c2ccc(F)cc2)cc1` [Compound 4] was 0.16 µM (≈ 0.066 µg/mL).

In the case of `CCCc1ccc(-n2c(-c3ccc(OC)cc3)cc(CN3CCOCC3)c2C)cc1` [Compound 24], the “MIC, antimycobacterial activity” value came to 0.16 µM (≈ 0.0647 µg/mL).

`COc1ccc(-c2cc(CN3CCOCC3)c(C)n2-c2ccc(C(C)C)cc2)cc1` [Compound 25]: the “MIC, antimycobacterial activity” value came to 0.2 µM (≈ 0.0809 µg/mL).
